# Source: the supplement of paper PMC4604168 (melanoma cell lines)
# This is one part of the list. Most values come without repeats; read them as rough.
# Tests used:
# Test in all cases: cell count relative to DMSO control; melanoma cells; higher = more viable cells
# Details in all cases: library dose: low library concentration; 72 h
# [1] = test system: WM115
# [2] = test system: WM1716
# [3] = test system: WM1745
# [4] = test system: WM3526
# [5] = test system: WM3619
# [6] = test system: WM451Lu
# 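Also: cell number obtained by counting DAPI-stained nuclei in high-throughput microscope images with image analysis software, screen run in 1,536-well plates.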
SMILES,cell count [1],cell count [2],cell count [3],cell count [4],cell count [5],cell count [6]
"Clc1ccc(Nc2nnc(Cc3ccncc3)c3ccccc23)cc1 [vatalanib] + COc1cc2c(Oc3ccc4[nH]c(C)cc4c3F)ncnc2cc1OCCCN1CCCC1 [cediranib] (first compound 2 µM, partner dose 0.4 µM)",109%,93.7%,78.8%,98.6%,77.7%,78.1%
"Cn1c(Nc2ccc(C(F)(F)F)cc2)nc2cc(Oc3ccnc(-c4ncc(C(F)(F)F)[nH]4)c3)ccc21 + O=C1NC(=O)/C(=C/c2ccc(-c3ccc(F)cc3O)o2)S1 [AS252424] (first compound 0.08 µM, partner dose 1 µM)",48.3%,76.6%,48.5%,50.4%,41.8%,95.7%
"C#Cc1cccc(Nc2ncnc3cc(OCCOC)c(OCCOC)cc23)c1 [erlotinib] + Cc1ccc(NC(=O)c2cccc(N(C)C)c2)cc1NC(=O)c1ccc(O)cc1 [ZM336372] (first compound 0.8 µM, partner dose 2 µM)",98.8%,92.5%,87.3%,89.1%,96.9%,97.1%
"Clc1ccc(Nc2nnc(Cc3ccncc3)c3ccccc23)cc1 [vatalanib] + COc1ccc(Cl)c(Nc2nc3ccccc3nc2NS(=O)(=O)c2cccc(NC(=O)C(C)(C)N)c2)c1 [XL147] (first compound 2 µM, partner dose 0.8 µM)",101%,74.5%,111%,103%,84.5%,92.3%
"Clc1ccc(Nc2nnc(Cc3ccncc3)c3ccccc23)cc1 [vatalanib] + Cn1c(Nc2ccc(C(F)(F)F)cc2)nc2cc(Oc3ccnc(-c4ncc(C(F)(F)F)[nH]4)c3)ccc21 [CHIR265] (first compound 2 µM, partner dose 0.08 µM)",65.2%,80.5%,69.8%,67.2%,73.6%,83.1%
"C#Cc1cccc(Nc2ncnc3cc(OCCOC)c(OCCOC)cc23)c1 [erlotinib] + NCC(=O)Nc1ccc(-n2nc(C(F)(F)F)cc2-c2ccc3c(ccc4ccccc43)c2)cc1 [OSU03012] (first compound 0.8 µM, partner dose 1 µM)",95.8%,82.4%,75%,59.2%,119%,57.5%
"Nc1cccc2c1CN(C1CCC(=O)NC1=O)C2=O (centres undefined) [lenalidomide] + C[C@]1(c2nc3c(C(N)=O)cccc3[nH]2)CCCN1 [Veliparib] (first compound 1 µM, partner dose 1.4 µM)",85.3%,91.5%,89.6%,105%,98.9%,104%
"C#Cc1cccc(Nc2ncnc3cc(OCCOC)c(OCCOC)cc23)c1 [erlotinib] + CN(NC(=O)CC(=O)NN(C)C(=S)c1ccccc1)C(=S)c1ccccc1 [STA4783] (first compound 0.8 µM, partner dose 0.006 µM)",80.7%,69.6%,60.7%,86.3%,83.9%,103%
"Nc1cccc2c1CN(C1CCC(=O)NC1=O)C2=O (centres undefined) [lenalidomide] + O=C(O)c1ccc(-c2c[nH]c3ncc(-c4ccccc4)cc23)cc1C1CCCC1 [GSK650394] (first compound 1 µM, partner dose 0.16 µM)",104%,96.6%,86.1%,88.5%,102%,109%
"OCc1c[nH]c2ccccc12 [Indole-3-carbinol] + COc1cc(Nc2ncc(F)c(Nc3ccc4c(n3)NC(=O)C(C)(C)O4)n2)cc(OC)c1OC [Tamatinib] (first compound 0.8 µM, partner dose 0.4 µM)",90.8%,93.7%,69.1%,106%,95.9%,86%
"Clc1ccc(Nc2nnc(Cc3ccncc3)c3ccccc23)cc1 [vatalanib] + COCC[n+]1c2c(n(Cc3cnccn3)c1C)C(=O)c1ccccc1C2=O [YM155] (first compound 2 µM, partner dose 0.0004 µM)",98.9%,90.1%,89%,118%,92.4%,88.3%
"Clc1ccc(Nc2nnc(Cc3ccncc3)c3ccccc23)cc1 [vatalanib] + CC(C)CCN1c2nc(Nc3cc(F)c(O)c(F)c3)ncc2N(C)C(=O)C1C [BID1870] (first compound 2 µM, partner dose 0.2 µM)",95.3%,106%,92.3%,101%,119%,101%
"Clc1ccc(Nc2nnc(Cc3ccncc3)c3ccccc23)cc1 [vatalanib] + COc1ccc(-c2ccc3c(N4CCOCC4)nc(N4C[C@@H](C)O[C@@H](C)C4)nc3n2)cc1CO [KU0063794] (first compound 2 µM, partner dose 0.02 µM)",104%,107%,101%,105%,112%,86.6%
"OCc1c[nH]c2ccccc12 [Indole-3-carbinol] + Cc1ccc(NC(=O)c2cccc(N(C)C)c2)cc1NC(=O)c1ccc(O)cc1 [ZM336372] (first compound 0.8 µM, partner dose 2 µM)",97.7%,109%,110%,100%,82.3%,84.5%
